Reference: PubChem BioAssay AID651820 (National Center for Advancing Translational Sciences (NCATS), 2012)
Among all 340,000 compounds or so, about 12,000 (3.5%) were called active. Inconclusive means that the source gave no clear call. Such entries were picked first, then a sample of the others. Calls come from the whole dose curve; as a rule, active = well fitted inhibition curve with a large enough effect; inconclusive = small, poorly fitted or top-dose-only effect, or another doubt; inactive = no such curve, though single readings can be large or run the other way. No potency is given beside an inconclusive call; the fits are too rough.

Experiment: qHTS Assay for Inhibitors of Hepatitis C Virus (HCV)
Conditions: Huh7.5.1 HCVcc-Cre (HCVcc is cell-culture hepatitis C virus) infection, luciferase reporter, 44 h; series mostly up to 41.8 µM
Summary of the method: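 After 44 h co-culture of compound, cells and HCVcc-Cre (~0.5 moi), substrate is added for 15 min at room temperature and luciferase measured over 15 sec. Cells were seeded at 1,000/well and pre-cultured 4 h.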
Potency is the fitted concentration of half-maximal effect; tags give direction and shape of the fitted curve.

| SMILES | Potency |
| --- | --- |
| Cc1[nH]n(-c2ccccc2)c(=O)c1N=Nc1c(O)cc(S(=O)(=O)N(C)C)c2ccccc12 | inconclusive [inhibitor, partial curve, poor fit] |
| COc1cccc(CN2CCN(CC(=O)Nc3ccccc3Cl)CC2)c1 | inconclusive [inhibitor, single point] |
| Cc1ccnc(Sc2ccc([N+](=O)[O-])cc2[N+](=O)[O-])n1 | inconclusive [inhibitor, single point] |
| COc1ccc(-n2c(CCc3ccccc3)nnc2SCC(=O)NCc2ccccc2)cc1 | inactive |
| CCSc1cc(N2CCCC2)nc(-c2ccc(F)cc2)n1 | inconclusive [inhibitor, partial curve, poor fit] |
| c1ccc(Nc2ccc3c4c(cccc24)CC3)cc1 | inactive |
| Cc1cc(C)c2c(=O)[nH][nH]c2n1 | inactive |
| CCOc1ccc2c(ccc(/C=C/c3cc(C)c4cccnc4c3O)[n+]2C)c1 | inconclusive [inhibitor, partial curve] |
| COC(=O)c1sccc1NC(=S)N1CCN(C)CC1 | inconclusive [inhibitor, single point] |
| COc1ccc(C(CCNCc2ccc(N(C)C)cc2)c2ccccc2OC)cc1 (centres undefined) | inconclusive [inhibitor, partial curve, poor fit] |
| O=C1CC(c2cccc(Cl)c2)CC(O)=C1C=NCCCO (centres undefined) | inactive |
| CC(=O)Nc1cc2c(cc1Br)OCCO2 | inconclusive [inhibitor, single point] |
| CCn1cnc2c1c(=O)n(CC(=O)NCC(F)(F)F)c(=O)n2Cc1ccccc1 | inconclusive [inhibitor, single point] |
| O=C1CCC(C(=O)Nc2ccc([N+](=O)[O-])cc2)N1 (centres undefined) | inactive |
| COc1ccc(C(=O)Nn2c(CC(C)C)nc3cc(Cl)ccc3c2=O)c(OC)c1 | inactive |
| COCc1c(C(=O)N2CCN(Cc3c(F)cccc3Cl)CC2)oc2ccccc12 | inconclusive [inhibitor, single point] |
| COc1ccc(CC2(C)OC(c3ccc(C)c([N+](=O)[O-])c3)=NN2C(C)=O)cc1 (centres undefined) | inconclusive [inhibitor, single point] |
| C=CCC(NCc1ccccc1)c1ccc(OC)cc1 (centres undefined) | inactive |
| COc1ccc(CCNc2ncnc3sc(C)cc23)cc1OC | active: 2.24 µM |
| CCOC(=O)c1c(CN(C)C)n(-c2ccc(C)cc2)c2cc(Br)c(O)cc12 | inconclusive [inhibitor, single point] |
| Cn1nc(C(=O)NC2CCCN(Cc3ccccc3F)C2)c2ccccc2c1=O (centres undefined) | inconclusive [inhibitor, single point] |
| CC(O)CN=c1cc(-c2ccccc2)oc2ccc(Cl)cc12 (centres undefined) | inactive |
| COc1cc2c(cc1OC)CN(S(=O)(=O)/C=C/c1ccccc1)CC2 | inactive |

| SMILES | Potency |
| --- | --- |
| Cc1c(Cc2ccccc2)c(=O)oc2cc(OCC(=O)NCC3CCC(C(=O)O)CC3)ccc12 (centres undefined) | inconclusive [inhibitor, partial curve] |
| Cc1cc(C)c(-c2c(N)cc(Br)cc2Br)c(N)c1 | inconclusive [inhibitor, single point] |
| Cc1ccc(SCC(=O)c2c(C)nc3cc(C)ccn23)cc1 | inconclusive [inhibitor, single point] |
| C=C1N(c2ccc(Cl)cc2)C(=O)OC1(C)C | inconclusive [inhibitor, single point] |
| Cc1ccc(-c2csc3nc(CSc4nnc(-c5ccc(Cl)cc5)n4C)[nH]c(=O)c23)cc1 | inconclusive [inhibitor, single point] |
| C=C1CCC2[C@](C)(CO)[C@H](O)CC[C@@]2(C)[C@@H]1C/C=C1\C(=O)OC[C@H]1O (some centres undefined) | inconclusive [inhibitor, single point] |
| COc1ccc(OC)c2sc(Cl)nc12 | inconclusive [inhibitor, partial curve] |
| Cc1ccc(CSc2nnc3ccc(-c4ccncc4)nn23)cc1 | inactive |
| CC(C)c1ccc(NC2CCCN(C(=O)c3cnn(C(C)C)c3)C2)cc1 (centres undefined) | inconclusive [inhibitor, partial curve] |
| CNc1cc(C)c(C#N)c2nc3ccccc3n12 | inactive |
| O=C(O)c1ccc(S(=O)(=O)c2ccc3c(c2)C(=O)N(c2ccccc2[N+](=O)[O-])C3=O)cc1 | inactive |
| COc1cccc(-c2nc(CS(=O)CC(=O)NCc3ccccc3Cl)c(C)o2)c1 (centres undefined) | inconclusive [inhibitor, single point] |
| CC(=O)c1cccc(NC(=O)CO/N=C2/CCCc3nonc32)c1 | inactive |
| CN(C)CCCN(C(=O)CCc1ccccc1)c1nc2ccc(F)cc2s1 | inconclusive [inhibitor, single point] |
| Cc1nc(NC(=O)c2ccccc2)sc1C1(C)CC(c2ccccc2F)=NO1 (centres undefined) | inconclusive [inhibitor, single point] |
| O=C(Nc1c2c(nn1-c1ccc(F)cc1)CS(=O)(=O)C2)c1ccc(Br)o1 | inactive |
| O=C(Nc1cccc(S(=O)(=O)N2CCCCCC2)c1)C1CCN(C(=O)c2ccc(F)cc2)CC1 | inconclusive [inhibitor, single point] |
| CC(C)Cn1c(O)c(N=NC(=O)c2cccc(S(=O)(=O)N3CCCCC3)c2)c2ccccc21 | inconclusive [inhibitor, partial curve] |
| CC1CCCN(c2ccc(C(=O)Nc3cccnc3)cc2[N+](=O)[O-])C1 (centres undefined) | inconclusive [inhibitor, single point] |
| COCCCNC(=S)N1CCN(c2nc(-c3cccc(OC)c3)cs2)CC1 | inconclusive [inhibitor, single point] |
| COc1ccc(CNC(=O)c2cc(-c3ccccc3O)n[nH]2)cc1 | inconclusive [inhibitor, single point] |
| CC1CCCCN1C(=O)c1ccc(OC2CCN(S(=O)(=O)N(C)C)CC2)cc1 (centres undefined) | inconclusive [inhibitor, single point] |
| CC(C)(C)c1ccc(CN2C(=O)CN=C(c3ccccc3)c3ccccc32)cc1 | inconclusive [inhibitor, single point] |

| SMILES | Potency |
| --- | --- |
| COc1ccc(C2C(C(=O)/C=C/c3ccco3)=C(O)C(=O)N2CCN2CCOCC2)cc1 (centres undefined) | active: 11.2 µM |
| CN(C1=C(NC(=O)c2ccccc2)C(=O)c2ccccc2C1=O)C1CCS(=O)(=O)C1 (centres undefined) | inconclusive [inhibitor, partial curve, poor fit] |
| O=C(/C=C/c1cccc2ccccc12)c1ccncc1 | active: 15.8 µM |
| O=C1C(=C(I)I)c2ccccc2-c2ccccc21 | active: 8.91 µM |
| COc1ccc2c(C)c(Cc3ccccc3)c(=O)oc2c1OC | inconclusive [inhibitor, single point] |
| Cn1cccc1CNC1CCCCC1 | inactive |
| COc1ccccc1NC(=O)CSc1nnc(-c2ccoc2C)n1CCc1ccccc1 | inconclusive [inhibitor, single point] |
| C[C@@H]1CN([C@H](C)CO)C(=O)c2cccc(NC(=O)Nc3ccc(C(F)(F)F)cc3)c2O[C@H]1CN(C)S(=O)(=O)c1cccs1 | inconclusive [inhibitor, single point] |
| CCc1c(C)nc2ncnn2c1NC1CCCc2ccccc21 (centres undefined) | inconclusive [inhibitor, full curve, poor fit] |
| CC1Cc2ccccc2N1C(=O)COC(=O)c1ccc(N(C)C)cc1 (centres undefined) | inconclusive [inhibitor, single point] |
| COC(=O)Cc1c(CSc2ccccc2)oc2ccc(O)c(CN(C)C)c12 | inconclusive [inhibitor, single point] |
| CCN(CC)c1ccc(NC(=O)COC(=O)COc2ccccc2[N+](=O)[O-])cc1 | inactive |
| O=C(NCc1ccc2c(c1)OCO2)c1ccc(S(=O)(=O)NCC2CCCO2)cc1 (centres undefined) | inconclusive [inhibitor, single point] |
| COc1ccccc1C1=CC(=O)C[C@H](c2ccc(F)cc2)C1 | inconclusive [inhibitor, partial curve] |
| CCOC(=O)c1sc(NC(=O)CSc2nc(C)cc(C)n2)c(C#N)c1C | inconclusive [inhibitor, single point] |
| Cc1cc(NC(=O)C2CC=CCC2C(=O)O)ccc1NC(=O)c1ccccc1 (centres undefined) | inactive |
| Cc1ccc(C(=O)N(CN2CCCC2=O)c2ccccc2)cc1C | inconclusive [inhibitor, single point] |
| Cc1ccc(-n2c(SCC(=O)Nc3ccc(N4CCOCC4)cc3)nc3ccccc3c2=O)cc1 | inconclusive [inhibitor, partial curve] |
| Cn1c(=O)c2cc3ccc(Cl)cc3nc2n(C)c1=O | inconclusive [inhibitor, single point] |
| Cc1ccc(C(=O)NNC(=O)c2cc(OCC(F)(F)F)ccc2OCC(F)(F)F)cc1 | inconclusive [inhibitor, single point] |
| O=[N+]([O-])c1ccc(N/N=C\c2cccnc2)nc1 | inactive |
| O=C(NC1CC1)c1cccc(NC(=O)c2cn3ccccc3n2)c1 | inactive |
| COc1ccc(/C=C/CN2CCCC(C(=O)c3cc(F)ccc3F)C2)cc1 (centres undefined) | inconclusive [inhibitor, partial curve, poor fit] |
